Source: PubChem BioAssay AID686979 (National Center for Advancing Translational Sciences (NCATS), 2013)
In all, about 420,000 compounds went through this assay and about 50,000 (12%) were called active. Inconclusive means that the source gave no clear call. Such entries were picked first, then a sample of the others. The call rests on the fitted dose curve; in most records, active means well fitted inhibition curve with a large enough effect; inconclusive means small, poorly fitted or top-dose-only effect; inactive means flat fitted curve, though single readings scatter. Potencies of inconclusive entries are left out as doubtful fits.

Test: qHTS for Inhibitors of human tyrosyl-DNA phosphodiesterase 1 (TDP1): qHTS in cells in presence of CPT; further: nearly all actives have a fitted effect of over 55% in size
Conditions: chicken DT40 Tdp1-/-;hTDP1 cells + 20 nM CPT, ATP luminescence, 48 h; activity change, negative = growth inhibition: at 46.2 µM (top of the series) unless noted
Outline: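 Cell growth measured by CellTiter-Glo luminescence after a minimum 48 h, 37 C compound exposure with 20 nM CPT in Tdp1-knockout DT40 cells stably expressing hTDP1, seeded 400/well; qHTS titration format.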
On the % scale 0 is the no-effect control and ±100 the full control effect; potency means the concentration at half of the fitted maximal effect; tags describe the fitted curve by direction and shape.

Compound	Potency	activity change, negative = growth inhibition
Oc1ccc(C=Nc2cccc3ccccc23)c(O)c1	inconclusive [inhibitor, single point]	
COc1ccc2nc(Nc3ccccc3OC)sc2c1	inconclusive [inhibitor, partial curve]	
COc1cc(N)c(Cl)cc1C(=O)N[C@H]1CCN(CCCOc2ccc(F)cc2)C[C@H]1OC	inconclusive [inhibitor, single point]	
O=C(CCCCCn1c(=S)[nH]c2ccc(N3CCOCC3)cc2c1=O)NCc1cccc(Cl)c1	inactive	
COc1ccc2[nH]c(=O)c(CN(CCc3ccccc3)Cc3nnnn3CC3CCCO3)cc2c1 (stereo not drawn)	active: 6.51 µM	
CCCn1c(SCc2ccccc2)nc2c1c(=O)[nH]c(=O)n2C	inconclusive [inhibitor, single point]	
CCOc1ccc(NC(=O)c2cnc(N3CCCCC3)c3ccccc23)cc1	active: 20.6 µM	
COc1ccc(Cn2c(=N)c(C(=O)NC3CCCCC3)cc3c(=O)n4ccccc4nc32)cc1	active: 18.4 µM	
CCCOc1c(Cl)cc(C(=O)N(Cc2cccc(OC)c2)C2CCS(=O)(=O)C2)cc1Cl (stereo not drawn)	inconclusive [inhibitor, single point]	
CN(C)S(=O)(=O)c1cc(NC(=O)COC(=O)CC2Sc3ccccc3NC2=O)ccc1Cl (stereo not drawn)	inactive	
COCCN1C(=O)C(O)=C(C(=O)c2ccco2)C1c1cccc(Oc2ccccc2)c1 (stereo not drawn)	inconclusive [inhibitor, single point]	
CN(C)S(=O)(=O)c1ccc(C(=O)Nc2nc(-c3cccs3)cs2)cc1	active: 20.6 µM	
CN(CC(=O)Nc1ccccc1Br)C(=O)c1ccc(COc2ccccc2)cc1	inconclusive [inhibitor, single point]	
CC(C)NC(=O)C1CCC(Cn2c(=O)c3sccc3n(CC(=O)NCc3ccccc3)c2=O)CC1 (stereo not drawn)	inactive	
CCOC(=O)C1=C[C@@H](C(C)(C)C)N(S(=O)(=O)c2ccc(C)cc2)[C@H]1c1ccc(Cl)c(Cl)c1	active: 16.4 µM	
O=C(/C=C/c1ccc(F)cc1)Nc1cccc(S(=O)(=O)N2CCOCC2)c1	inconclusive [inhibitor, single point]	
COc1ccc(/C(N)=N/OC(=O)CCCN2C(=O)c3ccccc3C2=O)cc1OC	inactive	
CC(C)C(=O)NNC(=O)CC(=O)Nc1ccccc1C(=O)O		inconclusive: -1.13% [inhibitor]
CCOC(=O)C/C(N)=N/NC(=O)c1ccc(Cl)cc1Cl	inactive	
CCOC(=O)c1c(-c2ccccc2)csc1NC(=O)c1cc(-c2ccc(F)cc2)on1	inactive	
O=C(COC(=O)c1ccccn1)Nc1nc(-c2cccc([N+](=O)[O-])c2)cs1	inconclusive [inhibitor, single point]	
CCc1ccc(Nc2nnc(SC(C)C(=O)NC3CC3)s2)cc1 (stereo not drawn)	inconclusive [inhibitor, single point]	
Cc1ccc(/C=N/NC(=O)Cn2cnc3ccccc32)cc1	inconclusive [inhibitor, single point]	
Cc1ccccc1OCC(=O)NC(=S)Nc1ccc2c3c(cccc13)CC2	active: 18.4 µM	

Compound	Potency	activity change, negative = growth inhibition
CCNc1nnc(SCC(=O)N2c3ccccc3NC(=O)CC2C)s1 (stereo not drawn)	inactive	
OC(c1ccc(Cl)c(Cl)c1)c1ncc(-c2ccc(Cl)cc2)[nH]1 (stereo not drawn)	inconclusive [inhibitor, single point]	
CC(C)(C)c1ccccc1NC(=S)NC1CCCC1	inconclusive [inhibitor, single point]	
Cc1cc(C)nc(NN2C(=O)/C(=C/c3ccccc3)SC2=S)n1	inactive	
CN(c1ccccc1)S(=O)(=O)c1nnc(NC(=O)c2ccccc2)s1	inconclusive [inhibitor, single point]	
Cc1cccc(NC(=O)C(=O)NCC2CCCN2S(=O)(=O)c2ccccc2)c1 (stereo not drawn)	active: 14.6 µM	
CC(C)(C)c1csc(NC(=O)c2ccncc2)n1	inconclusive [inhibitor, partial curve]	
COc1cc(CCC(=O)OCC(=O)Nc2ccc(F)c(F)c2)cc(OC)c1OC	inactive	
COc1ccc(NC(=O)C2CCCCN2CC(=O)OCc2ccccc2)cc1OC (stereo not drawn)	inactive	
Cc1ccccc1C(=O)NNC(=O)CSc1nnc(-c2ccncc2)n1-c1ccccc1	inactive	
OC(CCCN1CCCCC1)(c1ccccc1)c1ccc(C(F)(F)F)cc1 (stereo not drawn)	inconclusive [inhibitor, single point]	
CCN1C(=O)[C@H]2[C@@H](c3ccc(-c4ccc(C(C)=O)cc4)c(OC)c3)N3CCCC[C@@]3(C(=O)OC)[C@H]2C1=O	active: 23.1 µM	
Cc1ccc(N2C(=O)CN(Cc3sccc3C)C2=S)cc1C	inactive	
CC(C)CCC(CCNCc1ccccn1)c1ccc(Cl)cc1 (stereo not drawn)	inactive	
CCOC(=O)C1=C(CS(=O)(=O)c2ccc(F)cc2)NC(=O)NC1c1ccc(O)c(O)c1 (stereo not drawn)	inactive	
Cc1cccc(CN(C)C)c1CC(O)(c1ccccc1)c1ccccc1	inconclusive [inhibitor, single point]	
CCOC(=O)N1CCC2(CC1)NCCc1c2[nH]c2ccccc12	inactive	
Cc1ccccc1-n1c(C)nc2ccccc21	inconclusive [inhibitor, single point]	
COC(=O)Cn1c(=O)c2cccn2c2cccnc21	inactive	
NC(Cc1ccc(F)cc1)c1csc(Nc2ccc(S(N)(=O)=O)cc2)n1 (stereo not drawn)	inconclusive [inhibitor, single point]	
COc1ccccc1NS(=O)(=O)c1cc(NC(=O)COc2ccccc2F)ccc1N1CCOCC1	inconclusive [inhibitor, single point]	
COc1cccc(CC2(CO)CCCN(Cc3cc(F)ccc3-n3cccn3)C2)c1 (stereo not drawn)	inconclusive [inhibitor, partial curve]	
CC(C)(C)c1ccc(C(=O)c2c[nH]c(C(=O)NCc3cccnc3)c2)cc1	active: 18.4 µM	
C=CCSc1nnc(-c2cc3c(s2)-c2ccccc2CC3)o1	inactive	
